{
  "source": "PubChem BioAssay AID720708",
  "about": "(National Center for Advancing Translational Sciences (NCATS), 2013)",
  "note": "The whole screen tested about 360,000 compounds, of which about 660 (0.18%) were called active. The inconclusive results got no clear call from the source; some entries with a clear call stand among them for comparison. Calls follow the shape of the dose curve; as a rule, active = well fitted inhibition curve with a large enough effect; inconclusive = small, poorly fitted or top-dose-only effect; inactive = no such curve, though single readings can be large or run the other way. No potency is given beside an inconclusive call; the fits are too rough. Potency is read from the fitted curve at half-maximal effect; tags tell the direction and shape of the fitted curve.",
  "data": [
    {"target": "Rap guanine nucleotide exchange factor 4 (Homo sapiens) (UniProt Q8WZA2)", "sequence (Q8WZA2 whole entry, looked up)": "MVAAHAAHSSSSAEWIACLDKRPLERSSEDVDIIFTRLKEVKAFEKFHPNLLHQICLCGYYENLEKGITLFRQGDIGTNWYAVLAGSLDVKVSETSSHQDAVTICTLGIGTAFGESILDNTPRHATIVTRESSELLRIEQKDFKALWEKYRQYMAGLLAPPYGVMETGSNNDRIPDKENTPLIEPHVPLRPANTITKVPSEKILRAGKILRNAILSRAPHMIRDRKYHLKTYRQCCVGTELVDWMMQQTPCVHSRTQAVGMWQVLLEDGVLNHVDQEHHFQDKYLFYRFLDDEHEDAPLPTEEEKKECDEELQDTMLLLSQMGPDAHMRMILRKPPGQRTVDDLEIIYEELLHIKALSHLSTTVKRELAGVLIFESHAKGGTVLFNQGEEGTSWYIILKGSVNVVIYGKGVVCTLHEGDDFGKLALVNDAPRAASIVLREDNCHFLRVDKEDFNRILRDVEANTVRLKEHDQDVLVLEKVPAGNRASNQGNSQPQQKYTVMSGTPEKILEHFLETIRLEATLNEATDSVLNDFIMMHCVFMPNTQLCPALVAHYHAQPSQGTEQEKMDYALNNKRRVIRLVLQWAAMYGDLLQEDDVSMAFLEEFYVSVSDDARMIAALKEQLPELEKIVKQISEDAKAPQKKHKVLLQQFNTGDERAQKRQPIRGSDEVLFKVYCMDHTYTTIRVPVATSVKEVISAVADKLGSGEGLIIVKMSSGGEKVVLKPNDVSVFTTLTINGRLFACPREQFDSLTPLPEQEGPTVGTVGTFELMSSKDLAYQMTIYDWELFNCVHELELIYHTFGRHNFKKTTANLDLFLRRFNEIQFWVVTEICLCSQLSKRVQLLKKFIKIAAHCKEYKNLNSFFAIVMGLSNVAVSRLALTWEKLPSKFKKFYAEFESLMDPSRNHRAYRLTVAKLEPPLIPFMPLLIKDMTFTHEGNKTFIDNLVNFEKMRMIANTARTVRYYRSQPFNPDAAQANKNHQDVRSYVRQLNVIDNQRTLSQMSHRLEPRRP", "assay": "qHTS for Antagonist of cAMP-regulated guanine nucleotide exchange factor 2 (EPAC2): primary screen; also: nearly all actives have a fitted effect of over 45% in size", "details": "EPAC2 GEF exchange of Rap1B-BODIPY-GDP, fluorescence; series mostly up to 114 µM", "values": [
      {"smiles": "Cc1ccc(C(C)C)c(Oc2nnnn2-c2ccccc2)c1", "Potency": "inconclusive [inhibitor, full curve]"},
      {"smiles": "CCc1nnc(NS(=O)(=O)c2ccc(NCc3cc(Cl)ccc3O)cc2)s1", "Potency": "inconclusive [inhibitor, full curve]"},
      {"smiles": "CCOC(=O)C1=C(C)OC(N)=C(C#N)C1c1cc2c(cc1Br)OCO2", "note": "(stereo unspecified)", "Potency": "inconclusive [inhibitor, partial curve]"},
      {"smiles": "CCCCN(CCO)c1ncnc2sc(-c3ccccc3)cc12", "Potency": "inconclusive [inhibitor, partial curve]"},
      {"smiles": "CCOC(=O)C1=C(C)N=c2s/c(=C\\c3ccc(O)c([N+](=O)[O-])c3)c(=O)n2C1c1ccccc1OC", "note": "(stereo unspecified)", "Potency": "inconclusive [inhibitor, partial curve]"},
      {"smiles": "C#Cc1ccc(CN2CCCC(C(=O)Nc3ccccc3Oc3cccnc3)C2)cc1", "note": "(stereo unspecified)", "Potency": "inconclusive [inhibitor, partial curve]"},
      {"smiles": "COc1ccc(C2=CC(=O)OC3(CCCCC3)O2)cc1", "Potency": "inconclusive [inhibitor, partial curve]"},
      {"smiles": "CC(=O)NC(C)(c1ccccc1)c1nc(-c2cc(F)cc(F)c2)cs1", "note": "(stereo unspecified)", "Potency": "inconclusive [inhibitor, full curve]"},
      {"smiles": "O=C(NCCNc1ccc([N+](=O)[O-])cc1C(F)(F)F)c1cccc(F)c1", "Potency": "inconclusive [inhibitor, full curve, poor fit]"},
      {"smiles": "COc1ccc(C2CN=NC23CCc2ccccc2C3=O)cc1", "note": "(stereo unspecified)", "Potency": "inconclusive [inhibitor, partial curve]"},
      {"smiles": "CCOC(=O)c1ccccc1OC(=O)NNc1ccccc1", "Potency": "inactive"},
      {"smiles": "c1ccc2c(Nc3nc(N4CCOCC4)c4ccccc4n3)cccc2c1", "Potency": "inconclusive [inhibitor, partial curve]"},
      {"smiles": "C=CCn1nc(-c2ccccc2)cc1C(=O)OCC", "Potency": "inactive"},
      {"smiles": "Cc1[nH][nH]c(=O)c1C(c1ccc(-c2cccc(Cl)c2)o1)c1c(C)[nH][nH]c1=O", "Potency": "inconclusive [inhibitor, single point]"},
      {"smiles": "Oc1ccc(Cl)cc1CNc1cnc2ccccc2c1", "Potency": "inactive"},
      {"smiles": "CCc1ccccc1C1=CC(=O)C[C@H](c2ccc(OC)cc2)C1", "Potency": "inconclusive [inhibitor, single point]"},
      {"smiles": "O=[N+]([O-])c1cc(S(=O)(=O)Nc2ccccc2)ccc1Nc1ccccc1", "Potency": "inactive"},
      {"smiles": "COc1ccc(OC)c(/C=c2\\sc3nc(-c4cccs4)nn3c2=O)c1", "Potency": "inactive"},
      {"smiles": "CC(C)C[C@H]1COc2cccc(N3CCSCC3)c2S(=O)(=O)N1", "Potency": "inactive"},
      {"smiles": "O=C(Nc1ccccc1)c1ccccc1Br", "Potency": "inconclusive [inhibitor, single point]"},
      {"smiles": "CCCCCCCCCCCCN1C/C(=C\\C(=O)OCC)c2cc(C(F)(F)F)ccc2S1(=O)=O", "Potency": "inconclusive [inhibitor, single point]"},
      {"smiles": "O=C(COC(=O)C1CCN(S(=O)(=O)c2cccs2)CC1)c1ccccc1", "Potency": "inconclusive [inhibitor, single point]"},
      {"smiles": "Cc1ccc(C(=O)c2ccccc2C(=O)OCC(=O)NCCc2ccccc2)cc1", "Potency": "inconclusive [inhibitor, partial curve]"},
      {"smiles": "Cc1cccc(N2CCN(C(=O)c3cnn4c(C(F)F)cc(-c5ccccc5)nc34)CC2)c1C", "Potency": "inactive"},
      {"smiles": "CCN(CC)S(=O)(=O)c1ccc(C(=O)N2CCN=C2SCc2cccnc2)cc1", "Potency": "inactive"},
      {"smiles": "COc1ccc2sc(-c3ccc(N(C)C)cc3)c(C#CC(C)(C)O)c2c1", "Potency": "inconclusive [inhibitor, single point]"},
      {"smiles": "COc1ccccc1CC(=O)N(Cc1ccccc1)c1cccc(C)c1", "Potency": "inconclusive [inhibitor, partial curve]"},
      {"smiles": "CC(=O)C1=C(C)N(Cc2ccccc2)C(=O)N[C@H]1c1cccc(C(F)(F)F)c1", "Potency": "inconclusive [inhibitor, partial curve]"},
      {"smiles": "O=C1Nc2ccccc2N=C(c2ccccc2)c2ccccc21", "Potency": "inconclusive [inhibitor, single point]"},
      {"smiles": "CC(C)n1c(NCc2c[nH]c3ccccc23)nc2ccccc21", "Potency": "inconclusive [inhibitor, single point]"},
      {"smiles": "O=C(Nc1ccc(Cl)cc1)c1sccc1-n1cccc1", "Potency": "inconclusive [inhibitor, partial curve, poor fit]"},
      {"smiles": "CCCCCCOc1ccc(-c2ccc(C#N)cn2)cc1", "Potency": "inconclusive [inhibitor, partial curve, poor fit]"},
      {"smiles": "Cc1cc(/C=C(/C#N)C(=O)O)c(C)n1-c1cccc2ccccc12", "Potency": "inconclusive [inhibitor, single point]"},
      {"smiles": "COc1ccc2cc(C3CC(c4ccco4)=NN3S(=O)(=O)c3ccccc3)c(Cl)nc2c1", "note": "(stereo unspecified)", "Potency": "inactive"},
      {"smiles": "CCOc1ccccc1CN1CCNC(=O)C1CC(=O)NCCC1=CCCCC1", "note": "(stereo unspecified)", "Potency": "inactive"},
      {"smiles": "CCC(C)CN1C(=O)CN(S(C)(=O)=O)CC1(C)C(=O)Nc1ccc2c(c1)OCCO2", "note": "(stereo unspecified)", "Potency": "inconclusive [inhibitor, full curve]"},
      {"smiles": "COc1cccc(-c2cc(C(=O)Nc3cc(C)n(Cc4ccc(Cl)cc4)n3)no2)c1", "Potency": "inactive"},
      {"smiles": "COc1ccccc1NS(=O)(=O)c1cccc(-n2c(O)c(C=Nc3ccccc3C(=O)O)c3ccccc3c2=O)c1", "Potency": "inconclusive [inhibitor, full curve]"},
      {"smiles": "CCCCc1c(-c2ccccc2OC)ncn1Cc1cccc(-c2ccccc2)c1", "Potency": "inconclusive [inhibitor, partial curve]"},
      {"smiles": "Fc1cccc(F)c1-n1c(CN2CCCCC2)csc1=S", "Potency": "inconclusive [inhibitor, partial curve, poor fit]"},
      {"smiles": "CCNc1nc(Oc2ccc(OC)cc2)cc(C(F)(F)F)n1", "Potency": "inconclusive [inhibitor, partial curve]"},
      {"smiles": "Cc1ccc(-c2ccc(CN3C(C(C)C)C(=O)N(Cc4cn(CCC5OCCO5)nn4)CCS3(=O)=O)cc2)c(C)c1", "note": "(stereo unspecified)", "Potency": "inconclusive [inhibitor, partial curve]"},
      {"smiles": "Cn1c(/C=C/N(Cc2ccccc2)c2ccccc2)c([N+](=O)[O-])c(=O)n(C)c1=O", "Potency": "inconclusive [inhibitor, single point]"},
      {"smiles": "CC(=O)Oc1cc(C)cc2oc(=O)cc(-c3ccccc3)c12", "Potency": "inconclusive [inhibitor, partial curve]"},
      {"smiles": "CCCCCCn1nc(C(=O)OCC(=O)c2c(N)n(C)c(=O)n(C)c2=O)c2ccccc2c1=O", "Potency": "inconclusive [inhibitor, full curve]"},
      {"smiles": "COc1ccc2c(c1)O[C@H](c1ccc3c(c1)OCO3)[C@@H](O)C2=O", "Potency": "inconclusive [inhibitor, single point]"},
      {"smiles": "Cc1ccc(S(=O)(=O)n2c3ccc(Cl)cc3c3nc(C)sc32)cc1", "Potency": "inconclusive [inhibitor, partial curve]"},
      {"smiles": "CC(C)C[C@H]1CN([C@@H](Cc2ccc(O)cc2)CN2CCC[C@H]2CN2C(=O)C(=O)NC[C@@H]2Cc2ccccc2)C(=O)C(=O)N1CC1CCCCC1", "Potency": "inconclusive [inhibitor, single point]"},
      {"smiles": "COCCNC(=O)C1CCCN(Cc2ccccc2F)CC1", "note": "(stereo unspecified)", "Potency": "inactive"},
      {"smiles": "CSc1ccccc1C(=O)Nc1ccc(C)cc1C", "Potency": "inconclusive [inhibitor, partial curve]"},
      {"smiles": "O=C(O)c1ccc(N2CCN(c3ccc(Cl)cc3)CC2)c([N+](=O)[O-])c1", "Potency": "inconclusive [inhibitor, partial curve]"},
      {"smiles": "Cc1ccc(NC2C(=O)NC(=O)NC2=O)cc1", "Potency": "inconclusive [inhibitor, partial curve, poor fit]"},
      {"smiles": "CCCCn1c(N)c(N(CCOC)C(=O)c2ccc(F)c(S(=O)(=O)N3CCOCC3)c2)c(=O)[nH]c1=O", "Potency": "inactive"},
      {"smiles": "Cc1cc(-c2cc(C)c(N)cc2C)c(C)cc1N", "Potency": "inconclusive [inhibitor, partial curve]"},
      {"smiles": "Cc1sc(NC(=O)CCCC(=O)O)c(C#N)c1C", "Potency": "inactive"},
      {"smiles": "O=C(NC(Cc1ccc(O)cc1)C(=O)N=Nc1c(O)[nH]c2ccccc12)c1ccccc1", "note": "(stereo unspecified)", "Potency": "inconclusive [inhibitor, single point]"},
      {"smiles": "O=C(COc1ccc(F)cc1Cl)NC1CCCCCC1", "Potency": "inconclusive [inhibitor, partial curve]"},
      {"smiles": "COCCOC(=O)/C(=C\\c1cc(C(C)(C)C)c(O)c(C(C)(C)C)c1)C(C)=O", "Potency": "inconclusive [inhibitor, partial curve]"},
      {"smiles": "COc1cc(CCc2ccccc2)c(C(=O)O)c(O)c1CC=C(C)C", "Potency": "active: 35.5 µM"},
      {"smiles": "O=c1[nH]c(COc2ccc(Br)cc2Cl)nc2ccccc12", "Potency": "inactive"},
      {"smiles": "Cc1cc(C)c(S(=O)(=O)N2CCCC2)c(C)c1", "Potency": "inconclusive [inhibitor, full curve]"},
      {"smiles": "CC1(C)CC(=O)C=C(c2ccc(-c3ccccc3)cc2)C1", "Potency": "inactive"},
      {"smiles": "Oc1c(Br)cc(Br)cc1CNc1cnc2ccccc2c1", "Potency": "inconclusive [inhibitor, partial curve]"},
      {"smiles": "O=C(O)C1=CC[C@@H](c2ccc(Cl)cc2)N(S(=O)(=O)c2ccc(Cl)cc2)[C@H]1c1cccc(Cl)c1", "Potency": "inconclusive [inhibitor, partial curve]"},
      {"smiles": "CC(C)N(C(=S)Nc1cccc(C(F)(F)F)c1)C(C)c1ccccn1", "note": "(stereo unspecified)", "Potency": "inconclusive [inhibitor, partial curve]"},
      {"smiles": "O=C(O)c1cc(N=Nc2c(O)ccc3ccccc23)cc(C(=O)O)c1", "Potency": "inconclusive [inhibitor, partial curve]"}
    ]}
  ]
}
